Among all 1,300 compounds or so, about 30 (2%) were called active. Roughly 10% stayed inconclusive and do not appear here. Calls come from the whole dose curve; as a rule, active = well fitted inhibition curve with a large enough effect; inconclusive = small, poorly fitted or top-dose-only effect; inactive = flat fitted curve, though single readings scatter. Some of the results follow.
Test: qHTS for antagonists of the Thyroid Stimulation Hormone Receptor: Hit Validation in HTRF Activity in a Luteinizing Hormone Receptor Cell Line
Conditions: LHR-expressing cell line, cAMP HTRF, antagonist mode; series mostly up to 58 µM; activity change, negative = inhibition: at the top concentration
Source text: The thyroid-stimulating hormone receptor (TSHR) is a member of the 7 trans-membrane-spanning receptor (7TMR) family of cell surface receptors. TSHR-mediated hyperthyroidism is important in thyroid pathology. The development of small molecule antagonists of TSHR may lead to therapeutic approaches for TSHR-mediated hyperthyroidism caused by constitutively activating mutations or stimulating auto-antibodies associated with Graves' disease. Graves' disease is the leading cause of hyperthyroidism and is caused by autoantibodies that stimulate TSHR (TsAbs) causing thyroid growth and unregulated overproduction of thyroid hormones and existing treatments have liabilities (agranulocytosis). In addition, TSHRs are known to be expressed in multiple extrathyroidal tissues including bone, brain, kidney, testis, fat and cells of the immune system but the role of the TSHR in these tissues is not clear. Therefore, TSHR antagonists/inverse agonists could be used as probes of extrathyroidal TSHR function. Finally, TSHR inverse agonists, which are a subclass of antagonists that inhibit agonist-independent (or basal or constitutive) TSHR signaling, could be used to inhibit TSH-independent signaling in patients with recurrent or metastatic thyroid cancer who are receiving thyroid hormone to suppress TSH.
In collaboration between scientist from the NCGC and the NIDDK, a miniaturized HTRF high-throughput screen was developed. It's a cell based assay, where an anti cAMP antibody contains a fluorescent cryptate tag (excitation 337 nm; emission 620 nm) and the acceptor is cAMP-d2 (excitation 620 nm; emission 665 nm). When antibody and cAMP-d2 interact and are excited by a 337 nm light, a FRET occurs resulting in emission at 665 nm. The assay is competition between cAMP-d2 and cAMP (from the cell lysate). The homogeneous protocol allows for one step dispense after stimulation that is automation friendly. In order to confirm specificity of the compounds to the TSHR, a confirmatory assay was conducted on a similar family member, the Luteinizing Hormone (LH) receptor, transfected into a HEK 293 cell line, using an orthogonal detection technology to measure cAMP stimulation: antibody-based Homogeneous Time Resolved Fluorescence (HTRF).
NIH Chemical Genomics Center [NCGC]
NIH Molecular Libraries Probe Centers Network [MLPCN]
Assay Provider: Marvin Gershengorn, NIDDK
Homogeneous Time Resolved Fluorescence (HTRF) cAMP Assay. HEK 293 cells stably transfected with a vector containing the LH receptor and maintained under hygromycin selection were obtained from the laboratory of Dr. Marvin Gershengorn. Compounds were assayed using a HTRF cAMP detection kit (Cisbio) on the LH receptor transfected cell line. Briefly, 750 cells were plated in 2.5 ul/well of complete media (DMEM containing 10 % FCS, and 100 uM RO 20-1724) in 1536 well solid bottom white plates and 23 nl/well compound in DMSO solution or controls was added. Following 30 minute incubation at room temperature, 2.5 ul/well of labeled d2 cAMP and 2.5 ul/well of anti-cAMP antibody (both diluted 1:20 in lysis buffer) were added to each well using a flying reagent dispenser (Aurora Discovery, San Diego) . Plates were measured using the Envision plate reader (PerkinElmer, Boston, MA) with excitation at 330 nm and emissions of 615 nm and 660 nm.
% is set by controls: 0 for no effect and ±100 for the full control effect.

Activity change, negative = inhibition, inactive:
N#C/C(=N\Nc1ccc(S(=O)(=O)N2CCCCCC2)cc1)C(N)=S 3.27%, CCOC(=O)COc1ccc(Br)cc1/C=C/c1[nH]c(=O)[nH]c(=O)c1[N+](=O)[O-] 1.67%, CC(C)(C)c1cc2nc3c(c(=O)n2[nH]1)CN(Cc1ccccc1)C3=O 0.799%, COc1ccc(NC(=O)c2c(F)cccc2F)cc1S(=O)(=O)Nc1ccc(Br)cc1 1.89%, CCOc1cc(/C=C/c2ccc3cccc([N+](=O)[O-])c3n2)ccc1OCC(=O)N(C)C -6.45%, COc1cccc(OC)c1C(=O)Nc1ccc2c(c1)N(S(=O)(=O)c1cccs1)CCC2 -1.97%, CCN1C(=NCc2ccc(OC)cc2)N[C@@H](CCc2ccccc2)[C@H](C(=O)NCc2ccc(OC)cc2)[C@H]1C -0.237%, COc1ccc(NC2CCCN(C(=O)CCc3cccc(F)c3)C2)cc1 (stereo unspecified) 2.78%, Cc1nn(S(=O)(=O)c2ccc(F)cc2)c(C)c1S(=O)(=O)N1CCOCC1 -0.937%, O=C(COc1ccc(Cl)cc1)Nc1ncc([N+](=O)[O-])s1 -0.689%, Cc1cccc(N2CCN(C(=O)C3(S(=O)(=O)c4ccc(Cl)cc4)CC3)CC2)c1C 1.97%, Cc1ccc(CNC(=O)CSc2nnc3c(n2)[nH]c2ccccc23)cc1 -0.907%, Cc1ccccc1NC(=O)Cc1nc(COC(=O)c2cccc([N+](=O)[O-])c2)cs1 3.09%, N#C/C(=C\c1ccc(O)c([N+](=O)[O-])c1)c1nc2ccccc2s1 -0.137%, COc1cc(/C=C(\C#N)c2ccccn2)ccc1OCc1ccc(Cl)cc1 -1.94%, CCOc1ccc(CNC(=O)CCCn2nc(CC)n3c(cc4occc43)c2=O)cc1 0.605%, COc1ccc(CN(C)C(=O)COC(=O)c2cnc(Cl)c(Cl)c2)cc1 1.72%, O=S(=O)(NCc1csc(-c2ccccc2)n1)c1ccc(Cl)s1 2.31%, O=C(COC(=O)C12CC3CC(CC(Br)(C3)C1)C2)Nc1cccc(S(=O)(=O)N2CCOCC2)c1 0.464%, COC(=O)CN(c1ccc(C)cc1)S(=O)(=O)c1ccc2c(c1)n(C)c(=O)c(=O)n2C 0.47%, COc1cc(OC)c(NC(=O)Cn2cnc3sc(C)c(S(=O)(=O)N4CCOCC4)c3c2=O)cc1Cl 1.34%, CC(=O)N1c2ccc(S(=O)(=O)N(C)CC(=O)N(C)Cc3ccccc3)cc2CC1C (stereo unspecified) 1.01%, Cc1ccc(S(=O)(=O)NCCNc2ccc([N+](=O)[O-])cc2)cc1 3.17%, Brc1ccc(CNc2ccc3ncccc3c2)cc1 0.575%, O=S(=O)(c1ccc(Cl)cc1)N1CCN(c2ncnc3sccc23)CC1 -1.02%, Cc1ccc(S(=O)(=O)Oc2ccc(/C=C(/NC(=O)c3ccccc3)C(=O)Nc3ccccc3)cc2)cc1 2.77%

From PubChem BioAssay AID602293 (National Center for Advancing Translational Sciences (NCATS), 2012)
